About 800 (1.6%) of roughly 50,000 compounds showed an effect of 50% or more. This is one part of the list.
Molecular target: Bcl-2-like protein 10 (Homo sapiens) (UniProt Q9HD36)
Assay: Phenotype converters, Bcl-B/TR3 peptide binding displacement, primary biochemical FP (AID 1240);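 note: 0% = Bcl-B with tracer peptide and DMSO and 100% = tracer peptide lacking Bcl-B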
Details: GST-Bcl-B / FITC-TR3 peptide fluorescence polarization; stronger effect = higher value; compound at 3.75 mg/L

UniProt Q9HD36, sequence (Q9HD36 whole entry, looked up): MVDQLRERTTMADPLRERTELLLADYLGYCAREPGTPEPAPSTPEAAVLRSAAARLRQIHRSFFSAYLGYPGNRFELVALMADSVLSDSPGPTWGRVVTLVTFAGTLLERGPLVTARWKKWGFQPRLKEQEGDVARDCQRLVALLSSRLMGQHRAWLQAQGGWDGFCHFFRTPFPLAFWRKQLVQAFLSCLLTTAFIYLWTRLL

| Structure (SMILES) | displacement [%] |
| --- | --- |
| CC(C)OC(=O)c1c(N)sc2c1CCCCC2 | -4.7 |
| CC1(O)N(CC(=O)c2cccs2)C(=O)OC12CCCCC2 (stereo not given) | -11 |
| CCOc1ccc(NC(=O)c2c(Cl)cccc2Cl)cc1 | 7.9 |
| O=C(CCc1ccccc1)N1N=C(c2ccc(Cl)cc2)CC1(O)C(F)(F)F (stereo not given) | -24.1 |
| COc1cccc(C(=O)Nc2ccc(Cl)c(C(F)(F)F)c2)c1 | 7.6 |
| COc1ccc(OC)c(NC(=O)C(C)Oc2ccccc2)c1 (stereo not given) | 8.6 |
| O=C1NC(=S)N(c2ccc(F)cc2)C(=O)/C1=C/c1ccc(F)cc1 | 1.4 |
| CCC(C(=O)N1CCCC1)c1ccccc1 (stereo not given) | 10 |
| COc1cc(/C=N\NC(=O)CNc2ccccc2C)ccc1OC(C)=O | 7.9 |
| CCOc1ccc(-c2nnc(NC(=O)Nc3ccccc3)s2)cc1 | 14.2 |
| CC1CN(S(=O)(=O)c2ccc3c(c2)C(=NO)c2cc(S(=O)(=O)N4CC(C)OC(C)C4)ccc2-3)CC(C)O1 (stereo not given) | -12.8 |
| Cc1ccc(NC(=O)COc2ccc(Cl)cc2Cl)nc1 | -9.2 |
| CC1=C(C(=O)OCCc2ccccc2)C(c2cc([N+](=O)[O-])ccc2Cl)CC(=O)N1 (stereo not given) | -5.4 |
| O=C(CNC(=O)c1ccco1)c1ccc(F)cc1 | -5 |
| Cc1ccc(C(=O)Cn2c(NCCCO)nc3ccccc32)cc1 | 9.9 |
| CC1CCCCN1S(=O)(=O)c1ccc(Br)c2ccccc12 (stereo not given) | -3.3 |
| O=c1[nH]c(=O)n(-c2ccccc2Cl)c(O)c1C=NCc1ccccc1F | 6.3 |
| Cc1ccc(C(=O)N/C(=C\c2ccc(Cl)cc2)C(=O)NCCCN2CCOCC2)cc1 | 7.3 |
| O=[N+]([O-])c1ccc(C=Nc2cccc(Cl)c2)cc1 | -5.1 |
| O=[N+]([O-])c1cccc(-c2noc(-c3ccc(-c4ccccc4)cc3)n2)c1 | 4.5 |
| COc1cccc(/C=C2\SC(N3CCCCC3)=NC2=O)c1OC | -1.8 |
| CSc1nc(-c2ccccc2)c(C#N)c(=O)n1C | -3.9 |
| C=CCOc1cccc(/C=N/NC(=O)CC(=O)NC2CCCCC2)c1 | -2.6 |
| O=C(NC1CCN(Cc2ccccc2)CC1)c1ccc(Cl)cc1Cl | -2.5 |

| Structure (SMILES) | displacement [%] |
| --- | --- |
| CCOc1cc(/C=C2\SC(=S)NC2=O)ccc1OCc1c(C)no[n+]1[O-] | 117 |
| O=C(COc1ccccc1[N+](=O)[O-])N/N=C/c1cc2c(cc1Br)OCO2 | 3.9 |
| OCCc1ccc(-c2ccc(Cl)cc2)o1 | 10.5 |
| CC1=NN(c2ccc(C)cc2)C(=O)/C1=C/c1ccc(-c2cccc(C(=O)O)c2)o1 | 32.8 |
| COc1cc(NC(=O)c2ccccc2OC)ccc1NC(=O)c1ccco1 | -2.7 |
| Cc1ccc(-c2csc(Nc3ccc(O)cc3)n2)c(C)c1 | -3.3 |
| CCOc1ccc(NC(=O)/C=C/c2ccc(OC)c(Br)c2)cc1 | 13.6 |
| CCn1c2ccccc2c2cc(CNC3CCCCC3)ccc21 | -0.9 |
| CC1=NN(c2ccccc2)C(=O)/C1=C\c1ccc(-c2ccc(C)cc2[N+](=O)[O-])o1 | -1.9 |
| CC(=O)c1ccc(NC(=O)c2ccc(Cl)c([N+](=O)[O-])c2)cc1 | -11.3 |
| Cc1ccccc1-c1nc2cc(NC(=O)c3cccc4ccccc34)ccc2o1 | -7.3 |
| O=C1CC(c2ccccc2)CC2=C1C(c1ccc(Cl)c(Cl)c1)Nc1ccccc1N2 (stereo not given) | -7.8 |
| CCOc1cc(C(=O)Nc2cccc3c2C(=O)c2ccccc2C3=O)cc(OCC)c1OCC | -7.5 |
| NC(=O)c1nn2c(c1Br)NC(c1ccccc1)CC2C(F)(F)F (stereo not given) | 1.6 |
| COc1ccc(-n2sc3c(c2=S)-c2cc(C)ccc2N(C)C3(C)C)cc1OC | -2 |
| CCN(CC)CCOc1ccc(Cl)c(C)c1 | -1.1 |
| COc1ccc(-c2noc(COc3cc(C)c(Cl)c(C)c3)n2)cc1 | -1.3 |
| CC1=C(C(=O)OC(C)C)C(c2ccc(F)cc2)NC(=O)N1 (stereo not given) | 6.9 |
| Cc1ccc2nc(Nc3ccccc3)c(/C=N/O)c(=O)n2c1 | 2.6 |
| COc1cc(C(=O)NCCOc2ccccc2Cl)cc(OC)c1OC | 9.6 |
| COC(=O)c1ccc(OCC(O)CN(C)C)cc1 (stereo not given) | 15.9 |
| CC(C)(C)c1ccc(S(=O)(=O)N2CCN(c3ccccc3)CC2)cc1 | -5.3 |
| O=C1C2C(c3ccccc3Cl)OC3(C(=O)c4ccccc4C3=O)C2C(=O)N1c1ccccc1C(F)(F)F (stereo not given) | 6.2 |
| O=C(N/C(=C/c1cccs1)C(=O)N1CCCCC1)c1ccccc1 | 8.5 |

| Structure (SMILES) | displacement [%] |
| --- | --- |
| COc1cc(C2NC(=S)NC(C)=C2C(=O)Nc2cccc(C)c2)cc(OC)c1OC (stereo not given) | 8.6 |
| O=C(CN(c1ccc(F)cc1)S(=O)(=O)c1ccccc1)NCc1ccco1 | 0.8 |
| Cn1c(-c2ccco2)nc2c3ccccc3c3ccccc3c21 | 14.9 |
| O=C(Nc1ccc(Cl)cn1)C12CC3CC(CC(C3)C1)C2 | 7.3 |
| NS(=O)(=O)c1ccc(NC(=O)C2CC2(c2ccccc2)c2ccccc2)cc1 (stereo not given) | -2.1 |
| Cc1ccc(-c2noc(COc3ccc4ccccc4c3)n2)cc1 | 11 |
| COc1ccccc1OCCOc1ccc(C=O)cc1 | 9.4 |
| Cc1cc([N+](=O)[O-])c(-c2ccc(/C=C3/Sc4ccccc4C3=O)o2)cc1Cl | 9.8 |
| O=[N+]([O-])c1cccc(NS(=O)(=O)c2cc(Cl)ccc2Cl)c1 | -6.8 |
| C/C(=N/NC(=O)c1ccccc1[N+](=O)[O-])c1ccc(N2C(=O)C3CCCCC3C2=O)cc1 (stereo not given) | -3.7 |
| O=C(N/N=C/c1ccc(F)cc1)c1cc(-c2ccc3ccccc3c2)n[nH]1 | -4.5 |
| C=CCn1c2ccccc2c2nnc(SCC(=O)O)nc21 | -17.1 |
| O=C1N=C(N2CCCCCC2)S/C1=C\c1ccccc1 | -19 |
| CC(C)CN1C(=O)/C(=C/C2CC=CCC2)SC1=S (stereo not given) | 6.8 |
| COc1ccc(CC(=O)NC2C3CC4CC(C3)CC2C4)cc1OC (stereo not given) | 8.6 |
| COc1ccc(-c2cc(C(F)(F)F)n3nc(C(=O)N4CCOCC4)cc3n2)cc1 | -0.7 |
| CCOC(=O)c1ccccc1NC(=O)c1ccncc1 | -2.6 |
| COc1ccc(CNC(=O)CN(c2ccc(C)cc2)S(=O)(=O)c2ccc(SC)cc2)cc1 | -3.6 |
| CC(=O)c1cnc2c(-c3ccccc3)c(C)nn2c1C | -2.3 |
| CCOC(=O)COc1cc(C)ccc1C(C)(C)C | -6.2 |
| O=C(/C=C/c1ccc(-c2ccccc2Cl)o1)c1ccc(F)cc1 | 6.5 |
| CC(=NCCc1ccccc1)c1c(C(F)(F)F)[nH]n(-c2nc3ccccc3s2)c1=O | -8.3 |

Reference: PubChem BioAssay AID1240 (Sanford-Burnham Center for Chemical Genomics, 2008)
